# Results as given in PubChem BioAssay AID445 (National Center for Advancing Translational Sciences (NCATS), 2006).
# About 40 (0.04%) of roughly 110,000 compounds were called active. Inconclusive means that the source gave no clear call. Such entries were picked first, then a sample of the others. The call rests on the fitted dose curve; in most records, active means well fitted curve in the direction sought with a large enough effect in the signal ratio (not every such curve was filed as active); inconclusive means small, poorly fitted or top-dose-only effect, or a change in a side signal; inactive means flat fitted curve, though single readings scatter; the % refers to the signal ratio. Potencies of inconclusive entries are doubtful fits and often do not repeat.
# Assay: IkB Signaling;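 on IkBa stabilization activation: 0% = basal untreated cells and 100% = reference inhibitor full response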
# Conditions: ABC-DLBCL IkBa-CBG/CBR dual luciferase ratio (green luciferase fused to IkBa over red control in OCI-Ly3 lymphoma cells), 4 h; IkBa stabilization activation: at 57.1 µM (top of the series), scaled: untreated 0%, proteasome inhibitor 100% unless noted
# In short: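 In this assay, an IκBα–CBG68 fusion accumulates when IKK-driven degradation is blocked; native CBR normalizes for cell number. OCI-Ly3 cells were treated 4 h with compound and doxycycline, then green and red light read after Chroma-Glo addition.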
# Potency means the concentration at half of the fitted maximal effect.
SMILES,IkBa stabilization activation,Potency
Cc1cc(C)c2c(N=CN(C)C)c(C(=O)N3CCN(c4ncccn4)CC3)sc2n1,inactive,
CCN(CC)[C@@H](C)CN1c2ccccc2Sc2ccccc21,inactive,
COC(=O)c1ccccc1NC(=O)C1CCN(S(=O)(=O)c2cc(C)ccc2OC)CC1,inconclusive: -0.142% [signal inhibitor],
CCOC(=O)c1sc(NC(=O)c2ccc3ncsc3c2)nc1C,inactive,
CCn1c2ccccc2c2nnc(NCCCO)nc21,"inactive: -0.799% [at 11.4 µM, scaled: untreated 0%, proteasome inhibitor 100%]",
COC(=O)c1cc2oc3ccccc3c2n1Cc1c(F)cccc1Cl,inconclusive: -1.07% [signal inhibitor],
COc1ccc(NC(=O)N2CCc3c([nH]c4ccc(OC)cc34)C2c2ccc(OC)cc2)cc1 (stereo unspecified),inconclusive: -3.86% [signal inhibitor],
CCCCCn1c(Sc2ncccn2)nc2c1c(=O)[nH]c(=O)n2C,inactive,
CCc1cccc(NC(=O)CN2CCCN(Cc3cccc(C)c3)S2(=O)=O)c1,inconclusive: 0.917% [signal inhibitor],
COc1ccc(N2CCN(C(=O)c3ccc4nc(N5CCC(C)CC5)sc4c3)CC2)cc1,inconclusive: 7.12% [signal inhibitor],
CC(C)N(Cc1nc(-c2ccc(Cl)cc2)no1)C(=O)CCCN1C(=O)c2ccccc2C1=O,inconclusive: 13.9% [signal inhibitor],
CC(NC(=O)c1sc2ncccc2c1-n1cccc1)c1ccccc1 (stereo unspecified),inconclusive: -0.639% [signal inhibitor],
CC(=O)[C@@H]1[C@H]2[C@@H](C(=O)[C@H]3OC[C@H]2O3)[C@@H]2C=Cc3ccccc3N12,"inactive: 1.93% [at 11.4 µM, scaled: untreated 0%, proteasome inhibitor 100%]",
CCSc1nnc(NC(=O)c2cc(C)on2)s1,,"inconclusive: 25.1 µM [signal inhibitor, partial curve]"
Cc1ccc(CCNC(=O)C2CCCN(C(=O)c3cc4sccc4n3C)C2)cc1 (stereo unspecified),inconclusive: 1.75% [signal inhibitor],
COC(=O)c1cc(NC(=O)Cn2nc(C)n3cccc3c2=O)cc(C(=O)OC)c1,,"inconclusive: 12.6 µM [signal inhibitor, partial curve]"
COc1ccc(N2CCN(C(=O)C(Cc3ccccc3)n3cccc3)CC2)cc1 (stereo unspecified),inactive,
CC(C)c1cc(C(=O)Nc2cc(Cl)ccc2O)no1,inconclusive: 7.64% [signal inhibitor],
CCOC(=O)C1=C(CS(=O)(=O)c2ccc(Br)cc2)NC(=O)NC1c1ccccc1 (stereo unspecified),inconclusive: 4.03% [signal inhibitor],
Cc1ccccc1CNC(=O)c1ccc(-c2nc(CS(=O)(=O)c3ccccc3)c(C)o2)cc1,inconclusive: -0.809% [signal inhibitor],
CC(=O)c1c(C)oc2ccc(N(C(=O)Oc3ccccc3)S(=O)(=O)c3ccc(C(C)(C)C)cc3)cc12,inactive,
COc1ccc(C)cc1NC(=O)CN(c1cc(C(F)(F)F)ccc1Cl)S(C)(=O)=O,inconclusive: 7.05% [signal inhibitor],
CC(Sc1nnc(-c2ccc(O)cc2)o1)C(=O)Nc1cccc2ccccc12 (stereo unspecified),,"inconclusive: 3.16 µM [signal inhibitor, full curve]"
O=C(COc1ccc(Cl)cc1Cl)NC1CCSC1=O (stereo unspecified),inactive,

SMILES,IkBa stabilization activation,Potency
COc1cc(C2c3c(oc4ccccc4c3=O)C(=O)N2CCN2CCOCC2)cc(OC)c1OC (stereo unspecified),inactive,
O=C(NCc1ccco1)c1cccs1,inconclusive: 19.8% [signal activator],
CCOC(=O)c1sc2ccccc2c1S(=O)(=O)Nc1cccc(C(F)(F)F)c1,inconclusive: 5.86% [signal inhibitor],
Cc1cccc(C(=O)NCCc2sc(-c3ccccc3)nc2C)c1,inconclusive: 0.605% [signal inhibitor],
CCOC(=O)C1CCCN(c2nc3ccccc3nc2C(C#N)C(=O)OCC)C1 (stereo unspecified),inconclusive: 0.442% [signal inhibitor],
COc1cccc(C(c2sc3nc(C)nn3c2O)N2CCN(c3ccccc3F)CC2)c1 (stereo unspecified),inactive,
COc1ccc(CNC(=O)C(C#N)c2nc3ccccc3nc2N2CCCC2)cc1 (stereo unspecified),inactive,
Cc1coc2c1c(C)cc1oc(=O)cc(C)c12,inactive,
Cc1oc(-c2cccc(Cl)c2)nc1CN1CCCC(C(=O)NCc2ccc(F)cc2)C1 (stereo unspecified),inconclusive: -4.79% [signal inhibitor],
CCCCN(C)C(=O)C(Cc1ccccc1)NS(=O)(=O)c1ccc2c(c1)c(=O)n(C)c(=O)n2C (stereo unspecified),inconclusive: -2.26% [signal inhibitor],
COc1ccc(-c2nnc(SCC(=O)Oc3c(C)cccc3C)o2)cc1OC,inactive,
CC(C)c1ccc(S(=O)(=O)c2nnn3c2nc(NC2CCCC2)c2sccc23)cc1,inactive,
Cc1ccc(CSCC(=O)N2CCN(c3ccc(F)cc3)CC2)cc1,inconclusive: 2.5% [signal inhibitor],
Cc1ccc2c(=O)cc(CSc3ccccc3)[nH]c2c1C,inconclusive: -0.156% [signal inhibitor],
COc1ccc(NC(=O)C(C)N(c2ccc(C)cc2)S(C)(=O)=O)c(OC)c1 (stereo unspecified),inactive,
CC(=O)c1cccc(S(=O)(=O)NCCc2csc3nc(-c4ccc(F)cc4)nn23)c1,inconclusive: 2.29% [signal inhibitor],
CC(=O)Oc1c(S(=O)(=O)c2ccc(C)cc2)c(C)nn1C(C)(C)C,inconclusive: 4.32% [signal inhibitor],
Cc1nc(CC(=O)Nc2cccc(C)c2C)cs1,inactive,
Cc1cccc(N(CC(=O)Nc2ccc(Br)cc2)S(C)(=O)=O)c1C,inconclusive: -1.85% [signal inhibitor],
Fc1ccc(-c2nnc(NC3=NCCCCC3)o2)cc1,,"inconclusive: 12.6 µM [signal inhibitor, partial curve]"
CN1c2ccccc2-c2nc(SCC(=O)Nc3ccccc3C(F)(F)F)ncc2S1(=O)=O,inconclusive: 0.57% [signal inhibitor],
CCCCOC(=O)n1c(=O)oc2cc(S(=O)(=O)N3CCCCC3)ccc21,inconclusive: 4.91% [signal inhibitor],
CCN(Cc1ccccc1)C(=O)Cn1c(=O)n(Cc2ccccc2)c(=O)c2c1c1cc(OC)ccc1n2C,inconclusive: 2.55% [signal inhibitor],
O=C(NCC(c1cccnc1)N1CCN(Cc2ccccc2)CC1)C(=O)Nc1ccc(Cl)cc1 (stereo unspecified),inconclusive: 0.382% [signal inhibitor],

SMILES,IkBa stabilization activation,Potency
CC(=O)NCCNc1ccnc(-c2ccccc2C)n1,"inactive: 3.76% [at 11.4 µM, scaled: untreated 0%, proteasome inhibitor 100%]",
CCC(Sc1nnc(-c2ccc(OC)cc2)c(-c2ccc(OC)cc2)n1)C(=O)NC1CCCCC1 (stereo unspecified),inconclusive: 3.3% [signal inhibitor],
Cc1ccc(-n2c3nc(=O)n(C)c(=O)c-3cc3c(Cl)cccc32)c(C)c1,inconclusive: 2.66% [signal inhibitor],
Cc1nc(NCc2ccccn2)c2ccccc2n1,inactive,
CC1CCCN(S(=O)(=O)c2ccc(NC(=O)c3nc(SC(C)C)ncc3Cl)cc2)C1 (stereo unspecified),inconclusive: -1.26% [signal inhibitor],
COc1ccccc1/C=C/c1nc(C#N)c(N2CCCCCC2)o1,inconclusive: 0.865% [signal inhibitor],
COc1cccc(CNc2ccc3c(c2)ncn3C(C)C)c1OC,inactive,
Cn1nccc1C(=O)NCc1ccc2c(c1)CCN2C(=O)c1ccc(F)cc1,inconclusive: 0.142% [signal inhibitor],
CC1CCN(CC[C@H]2CCCN2S(=O)(=O)c2cccc(O)c2)CC1,inactive,
CCOC(=O)C1=C(N)n2c(s/c(=C\c3cccs3)c2=O)=C(C(=O)OCC)C1c1cccs1 (stereo unspecified),inconclusive: 0.394% [signal activator],
COc1ccc(OC)c(-c2cc(C(=O)Nc3cccc(Cl)c3C)no2)c1,inconclusive: 10.6% [signal inhibitor],
O=C(CSc1nc(-c2ccccc2)nc2c1CCCC2)c1ccc(F)cc1,inconclusive: -0.248% [signal inhibitor],
CCN(CC)CCN(Cc1cc2cc3c(cc2[nH]c1=O)OCCO3)C(=O)NC1CCCCC1,inactive,
Cc1ccc(S(=O)(=O)c2nc(-c3ccco3)oc2SC(C)c2ccccc2)cc1 (stereo unspecified),inactive,
CCC(=O)N1c2ccc(S(=O)(=O)NCc3cccc(OC)c3)cc2CC1C (stereo unspecified),inactive,
Cc1ccc2nc(Nc3nc(=O)c4ccccc4n3C)nc(C)c2c1,inconclusive: 14.4% [signal inhibitor],
CCCCN(CC)CCNC(=O)c1cc2c(-c3ccc(Cl)cc3)nn(C)c2s1,inconclusive: 1.03% [signal inhibitor],
COc1cc(NC(=O)CCc2c(C)nc3nc(-c4cc(OC)cc(OC)c4)nn3c2C)cc(OC)c1,inactive,
O=C(Nc1ccc(Nc2ccccc2)cc1)c1ccco1,inconclusive: 4.95% [signal inhibitor],
COc1ccc(S(=O)(=O)N(Cc2ccc(OC)c(OC)c2)Cc2ccco2)cc1,inconclusive: 4.27% [signal inhibitor],
O=C(CSc1nc2c(oc3ccccc32)c(=O)n1Cc1ccco1)Nc1cccc(Cl)c1,inconclusive: 0.834% [signal inhibitor],
CC1(C)CC(=O)C(C2(O)C(=O)N(Cc3ccccc3)c3ccccc32)CO1 (stereo unspecified),inconclusive: 3.65% [signal activator],
C/C(N)=C(/C#N)C(=O)COC(=O)c1cc(C)n(-c2ccc(F)cc2)c1C,inconclusive: 3.37% [signal inhibitor],
